Laboratory results published in PubChem BioAssay AID602340 (Broad Institute, 2012).
In all, about 330,000 compounds went through this assay and about 2,600 (0.79%) were called active. Inconclusive results, whose numbers are uncertain, are shown with a selection of clear calls.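 How the source made its calls: active means mean ATP rescue above about 67%, or every replicate alone reaching that limit (limit read from the data, passing the limit was not always enough); inconclusive means no clear call, values can overlap the other calls; inactive means mean under the limit and some replicate under it.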

Assay: suppressors of statin myotoxicity in C2C12 myotubes, primary screen, cell-based, single point, plate reader (AID 602340);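 further: myotubes were challenged with 10 µM simvastatin during compound exposure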
Conditions: C2C12 myotubes + simvastatin, ATP luminescence, 48 h; at 7.49 µM; active compounds read high; scaled: DMSO 0, geranylgeraniol control 100

Structure (SMILES)	rescue of ATP level
C[C@@H]1CN([C@H](C)CO)C(=O)c2cc(NS(=O)(=O)c3ccc(Cl)cc3)ccc2O[C@H]1CN(C)C(=O)Nc1cccc2ccccc12	inconclusive: 68.6%
O=C1NC(c2cn(-c3ccccc3)nc2-c2cccs2)C(C(=O)c2cccnc2)C(O)(C(F)(F)F)N1 (stereo unspecified)	inconclusive: 67.2%
COc1ccc(NC(=O)Nc2ccc3c(c2)C(=O)N([C@@H](C)CO)C[C@@H](C)[C@H](CN(C)C(=O)C2CCCCC2)OCCCC[C@H](C)O3)cc1	inconclusive: 70.8%
Cc1noc(C)c1NC(=O)Nc1ccc2c(c1)CC(=O)N([C@H](C)CO)C[C@H](C)[C@@H](CN(C)Cc1ccc(C(F)(F)F)cc1)O2	inconclusive: 89.1%
O=C(CSc1nc2ccccc2[nH]1)Nc1ccc2c(c1)OCCO2	active: 117%
Oc1c(C(Nc2nc3ccccc3s2)c2ccco2)ccc2cccnc12 (stereo unspecified)	inconclusive: 77.5%
C[C@H](CO)N1C[C@H](C)[C@H](CN(C)Cc2ccc(C(=O)Nc3ccccc3N)cc2)Oc2ccc(NC(=O)Nc3ccc(F)cc3)cc2CC1=O	inconclusive: 117%
CC1CC(C)C(=O)C(C(CC2CC(=O)NC(=O)C2)OC(=O)CC(=O)c2ccccc2)C1 (stereo unspecified)	inconclusive: 65.4%
COc1ccc(S(=O)(=O)Nc2ccc3c(c2)CC(=O)N([C@@H](C)CO)C[C@@H](C)[C@H](CN(C)Cc2ccc(Cl)c(Cl)c2)O3)cc1	inconclusive: 70.5%
CN(C)c1ccc2nc3c(=O)[nH]c(=O)nc-3n(CC(O)C(O)C(O)CO)c2c1 (stereo unspecified)	inactive: 7.75%
CCOC(=O)c1sc(NC(=O)c2ccc(CC)s2)nc1C	inactive: 18.4%
Cc1ccc(-n2ncc3c(=O)[nH]c(SCC(=O)N4CCOCC4)nc32)cc1	active: 129%
Cc1noc(C)c1S(=O)(=O)Nc1ccc2c(c1)C(=O)N([C@H](C)CO)C[C@@H](C)[C@@H](CN(C)CC1CC1)O2	inactive: 16.9%
C[C@H]1CN([C@@H](C)CO)S(=O)(=O)c2ccc(-c3cccc(F)c3)cc2O[C@@H]1CN(C)S(=O)(=O)c1ccc(F)cc1	inconclusive: 80.3%
Clc1ccc(OCCSCc2nc3ccccc3[nH]2)cc1	inconclusive: 74.6%
CCC(Sc1nc(=O)cc(N)n1CCc1ccccc1)C(=O)Nc1cc(C)on1 (stereo unspecified)	inactive: -0.746%
O=C(Cc1ccc(Cl)cc1)Nc1ncccn1	inconclusive: 1.44%
C[C@@]12CCC=C[C@H]1[C@H](c1ccc3ccccc3c1Br)N(Cc1ccccc1)C2=O	active: 77.7%
CC(C)n1c(SCC(=O)Nc2ccccc2N2CCOCC2)nc2c1c(=O)n(C)c(=O)n2C	inconclusive: 68%
O=c1c2ccccc2nc(-c2ccc(Br)cc2)n1Cc1ccccc1	inconclusive: 66.3%
C[C@H]1CN([C@@H](C)CO)C(=O)c2cccc(NC(=O)Nc3cccc4ccccc34)c2O[C@H]1CN(C)Cc1ccc(C(F)(F)F)cc1	inconclusive: 84.2%
COc1ccc(-c2nc3c4ccccc4ccn3c2Cc2cccc(F)c2)cc1OC	inconclusive: 66.7%
CCc1ccc(NC(=O)C2CCCN(S(=O)(=O)c3ccc4[nH]c(=O)ccc4c3)C2)cc1 (stereo unspecified)	inconclusive: 65.5%
COc1cc(C(=O)N2CCCCC2c2cc(C(=O)Nc3ccccc3)no2)cc(OC)c1C (stereo unspecified)	inconclusive: 105%

Structure (SMILES)	rescue of ATP level
O=C(CN1C(=O)S/C(=C\c2ccc(F)cc2)C1=O)Nc1cccc(S(=O)(=O)NCc2ccco2)c1	inconclusive: 19.2%
CO[C@@H]1CC[C@@H]2CCN(C)C(=O)[C@@H](C)[C@H](OC)CN(C)C(=O)c3cc(C#N)ccc3OC[C@@H]1O2	inactive: 7.41%
Clc1nc2sccn2c1/C=N/n1cnc2ccccc21	inconclusive: 66.1%
C[C@H](CO)N1C[C@H](C)[C@H](CN(C)C(=O)Nc2cccc3ccccc23)Oc2ncc(C#Cc3ccc(C(F)(F)F)cc3)cc2C1=O	inconclusive: 85.4%
CCC(=O)N1C[C@H](C)[C@H](OC)CN(C)C(=O)c2ccc(NC(=O)C3CCOCC3)cc2OC[C@H]1C	inactive: 8.13%
Cc1sc2nc(CN(C(=O)NCc3ccccc3)C3CCCC3)[nH]c(=O)c2c1C	inconclusive: 70.5%
C[C@@H]1CN([C@@H](C)CO)C(=O)c2cc(C3=CCCCC3)cnc2O[C@@H]1CN(C)C(=O)C1CCOCC1	inconclusive: 74.3%
CCOC(=O)c1cnn(-c2ccccc2)c1-n1cccc1	active: 107%
CN(C)c1ccc(C2C3C(=O)N(c4ccc(C(=O)O)cc4)C(=O)C3ON2c2ccccc2)cc1 (stereo unspecified)	active: 101%
CCNc1nc(NCC)n2c(SCC(=O)NC34CC5CC(CC(C5)C3)C4)nnc2n1	inactive: -0.397%
COc1ccc(C#Cc2cnc3c(c2)C(=O)N([C@@H](C)CO)C[C@H](C)[C@@H](CN(C)C(=O)Nc2cccc(OC)c2)O3)cc1	inconclusive: 67.9%
CCc1cccc(NC(=O)c2ccc(CNc3c(N4CCCC4)c(=O)c3=O)cc2)c1	active: 100%
CN1CCN(C(=O)C[C@@H]2CC[C@H]3[C@@H](COC[C@H](O)CN3CC3CC3)O2)CC1	inactive: -1.7%
CNC[C@H]1OCCCC[C@@H](C)Oc2ccc(NC(=O)Nc3ccc(C(F)(F)F)cc3)cc2C(=O)N([C@@H](C)CO)C[C@H]1C	inactive: -1.94%
C[C@@H]1CN([C@H](C)CO)C(=O)c2cccc(NC(=O)Nc3ccccc3)c2O[C@@H]1CN(C)S(=O)(=O)c1ccccc1	active: 65.3%
C[C@@H]1CN([C@H](C)CO)C(=O)Cc2cc(NS(=O)(=O)c3ccc(F)cc3)ccc2O[C@H]1CN(C)Cc1ccc2c(c1)OCO2	inconclusive: 73.1%
CN(CC(=O)Nc1cccc(F)c1)C(=O)Cn1c(=O)oc2ccccc21	inactive: 14.3%
COc1cc(/C=N\NC(=O)CNC(=O)c2cccc([N+](=O)[O-])c2)ccc1O	active: 110%
CCCC(=O)N(Cc1cc(=O)[nH]c2ccccc12)c1ccccc1OC	inconclusive: 20.2%
CC1Sc2ccc(S(=O)(=O)N3CCC(C(=O)Nc4ccc(Cl)cc4)CC3)cc2NC1=O (stereo unspecified)	inconclusive: 92.7%
CCCCNC(=O)c1cc2nc3c(c(C(F)(F)F)n2n1)CCc1ccccc1-3	active: 75.8%
COc1ccc(C#Cc2cnc3c(c2)C(=O)N([C@@H](C)CO)C[C@@H](C)[C@@H](CN(C)C(=O)Nc2cccc(OC)c2)O3)cc1	inconclusive: 65.1%
CCOc1ccc(-c2nc(CSCC(=O)NCc3ccco3)c(C)o2)cc1	active: 111%
CCC(=O)N1[C@@H](CO)[C@H](c2ccc(-c3ccccc3)cc2)[C@@H]1CNC(=O)COC	inactive: 7.5%

Structure (SMILES)	rescue of ATP level
CCc1cc2cccc(C)c2nc1SCC(=O)N1CCN(C(=O)c2ccco2)CC1	inconclusive: 71.2%
C[C@@H]1CN([C@H](C)CO)C(=O)c2cccc(NS(=O)(=O)c3cccs3)c2O[C@@H]1CN(C)S(=O)(=O)c1ccccc1	inconclusive: 71.6%
CC(=O)N1C=CN(C(C)=O)C(c2cn(C)c3ccccc23)C1c1cn(C)c2ccccc12 (stereo unspecified)	active: 115%
Cc1ccc(S(=O)(=O)Nc2ccc3c(c2)CC(=O)N([C@H](C)CO)C[C@H](C)[C@H](CN(C)S(=O)(=O)c2ccc(C)cc2)O3)cc1	inconclusive: 67%
C/C=C1\COC(C(=O)NCc2ccccc2)(C(F)(F)F)C=C1C=C(C)C (stereo unspecified)	inactive: -25.8%
CNC[C@@H]1Oc2ccc(NS(=O)(=O)c3c(C)noc3C)cc2C(=O)N([C@@H](C)CO)C[C@@H]1C	inconclusive: 65%
CC(C)c1cn(CC[C@@H]2CC[C@H](NS(=O)(=O)c3ccc(F)cc3)[C@H](CO)O2)nn1	inactive: -2.78%
O=C(COc1cccc2ccccc12)N1CCN(c2ccccc2)CC1	inconclusive: 73.3%
CCOc1ccc(CN2C(=O)c3ccccc3C2=O)cc1C(=O)NC1CC(C)(C)NC(C)(C)C1	inactive: 4.49%
COc1ccc(CC(=O)Nc2cc(C)on2)cc1	active: 137%
C[C@@H]1CN([C@@H](C)CO)C(=O)c2cccc(NC(=O)Nc3ccc4c(c3)OCO4)c2O[C@H]1CN(C)Cc1ccc(C(=O)Nc2ccccc2N)cc1	inconclusive: 89.2%
COc1cccc(C(=O)CN2C3=NCCCN3c3ccccc32)c1	active: 134%
Cn1c(CNc2nc3ccccc3n2CCN2CCCCC2)nc2ccccc21	inconclusive: 78.6%
CCCNC(=O)N(C)C[C@H]1Oc2cc(-c3cncnc3)ccc2S(=O)(=O)N([C@H](C)CO)C[C@H]1C	inactive: 6.39%
CN(C)CCCNC(=O)C[C@H]1C=C[C@H](NS(=O)(=O)c2ccccc2)[C@@H](CO)O1	inactive: -7.76%
O=C(CCN1CCc2ccccc2C1)c1ccc2c(c1)OCCO2	inactive: -1.8%
COC(=O)c1ccc(NC(=O)C2C3C=CC(O3)C2C(=O)O)cc1 (stereo unspecified)	active: 90.5%
COc1ccccc1NC(=O)NNC(=O)CN1C(=O)COc2ccccc21	inconclusive: 68.1%
O=C(O)/C=C\C(=O)Nc1ccccc1C(=O)N1CCN(c2ccc(Cl)cc2)CC1	active: 88%
O=C(Cn1cnc2c(cnn2-c2ccccc2)c1=O)c1ccc(Cl)cc1	active: 143%
CC(C)C#Cc1ccc2c(c1)O[C@@H](CN(C)C(=O)C1CCC1)[C@@H](C)CN([C@@H](C)CO)S2(=O)=O	inconclusive: 65.5%
COc1ccc(/C(C)=C2\SC(=S)N(CCC(=O)O)C2=O)cc1	inconclusive: 73.2%
C[C@H](CO)N1C[C@H](C)[C@H](CN(C)S(C)(=O)=O)OCCCC[C@H](C)Oc2ccc(NS(=O)(=O)c3ccc(F)cc3)cc2C1=O	inconclusive: 76.9%
